The target of test [1] is T1, IL2Rβγ (dimer) on 293F cells (human, UniProt P14784 27-551; P31785 23-369).
T1 construct: whole, on cells; also called IL2Rβγ subunit
T1 sequence (looked up) 1: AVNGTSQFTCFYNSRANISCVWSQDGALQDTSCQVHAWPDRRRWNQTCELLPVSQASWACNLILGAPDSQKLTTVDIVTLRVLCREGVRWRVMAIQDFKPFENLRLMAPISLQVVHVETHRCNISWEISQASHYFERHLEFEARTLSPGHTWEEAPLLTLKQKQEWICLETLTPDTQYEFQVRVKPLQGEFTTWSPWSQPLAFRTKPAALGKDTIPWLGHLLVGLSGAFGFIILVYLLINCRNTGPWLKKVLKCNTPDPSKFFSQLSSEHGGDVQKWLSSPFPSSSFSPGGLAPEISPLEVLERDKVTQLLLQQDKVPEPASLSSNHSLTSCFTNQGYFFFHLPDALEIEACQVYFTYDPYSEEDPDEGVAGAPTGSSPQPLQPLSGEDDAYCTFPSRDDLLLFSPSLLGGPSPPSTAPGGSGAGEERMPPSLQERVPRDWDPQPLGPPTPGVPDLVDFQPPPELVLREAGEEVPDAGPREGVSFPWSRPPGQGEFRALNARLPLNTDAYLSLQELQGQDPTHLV
T1 sequence (looked up) 2: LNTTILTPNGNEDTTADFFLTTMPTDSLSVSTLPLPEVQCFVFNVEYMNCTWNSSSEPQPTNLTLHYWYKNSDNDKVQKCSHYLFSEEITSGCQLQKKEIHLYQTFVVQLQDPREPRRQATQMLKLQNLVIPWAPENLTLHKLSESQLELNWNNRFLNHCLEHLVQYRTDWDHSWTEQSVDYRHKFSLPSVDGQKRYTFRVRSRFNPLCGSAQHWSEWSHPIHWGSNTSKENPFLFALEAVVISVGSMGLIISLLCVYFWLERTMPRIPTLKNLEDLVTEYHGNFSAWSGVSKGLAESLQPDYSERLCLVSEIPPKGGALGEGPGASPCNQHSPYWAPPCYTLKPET
Description: flow cytometry on 293F cells expressing IL2Rβγ. An excerpt: First, human IL2Rα, IL2Rβ, and IL2Rγ expression plasmids (Sinobio) were co-transfected into 293F cells to transiently express the following IL2R complexes: IL2Rαβγ (trimer), IL2Rαγ (dimer), and IL2Rβγ (dimer). The expression of the respective IL2R subunits on the cell membrane was detected using antibodies against IL2Rα, IL2Rβ, and IL2Rγ.
Then, the binding activity of KD5201F, KD5201E, and control protein-1 to the 293F cells expressing the two types of IL2R complexes (αγ and βγ) was detected using flow cytometry.
In general terms: Flow cytometry measures light scatter and fluorescence of single cells or particles in a stream.

In test [2] the target is T2, mouse IL2R on CTLL-2 cells (mouse, UniProt P01590 22-268).
T2 sequence (looked up): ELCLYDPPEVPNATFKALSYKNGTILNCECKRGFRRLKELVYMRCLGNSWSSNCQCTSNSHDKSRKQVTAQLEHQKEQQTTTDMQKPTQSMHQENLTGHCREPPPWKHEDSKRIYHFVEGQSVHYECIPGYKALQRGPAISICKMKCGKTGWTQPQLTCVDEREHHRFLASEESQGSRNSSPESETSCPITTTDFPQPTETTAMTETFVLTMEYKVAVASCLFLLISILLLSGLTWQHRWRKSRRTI
Description: cell-based or functional assay.

The target of test [3] is T3, full-length human TIGIT on the cell membrane (human, UniProt Q495A1 22-244).
T3 construct: whole, on cells; the cell is named under assay or readout; also called CHO-K-TIGIT; CHO-TIGIT
T3 sequence (looked up): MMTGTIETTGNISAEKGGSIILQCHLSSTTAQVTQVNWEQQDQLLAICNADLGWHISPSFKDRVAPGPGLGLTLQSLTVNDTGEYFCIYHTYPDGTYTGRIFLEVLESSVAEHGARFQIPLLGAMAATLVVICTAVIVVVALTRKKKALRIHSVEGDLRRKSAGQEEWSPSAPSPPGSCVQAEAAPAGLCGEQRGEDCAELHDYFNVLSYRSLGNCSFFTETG
Description: flow cytometry on Jurkat cells expressing human TIGIT. As for the experimental part: The binding activity of the anti-TIGIT antibody-IL2 fusion proteins to TIGIT on the cell membrane was tested using flow cytometry. A Jurkat cell line stably expressing human TIGIT was first established. The full-length human TIGIT gene (Sinobio) was amplified by PCR and cloned into the mammalian cell expression vector pcDNA3.1 (Invitrogen), using Not I and Xba I as cloning enzymes. The TIGIT expression plasmid was transfected into Jurkat cells to construct a stable Jurkat cell line expressing TIGIT (TIGIT-Jurkat).
The flow cytometry study method for the binding of TIGIT antibody-IL2 fusion proteins to cell membrane-bound TIGIT is summarized as follows: FACS buffer (1×PBS+0.5% BSA solution) was prepared. The required number of TIGIT-Jurkat cells, about 1×10⁵ to 5×10⁵ cells per sample, was taken and incubated with TIGIT antibody-IL2 fusion protein diluted to a certain ratio in FACS buffer, approximately 100 μL, at 4° C. for 30 minutes. After washing the cells once with FACS buffer, they were resuspended in FITC-conjugated anti-human IgG (Abcam: 6854) diluted in FACS buffer and incubated at 4° C. for 30 minutes. Finally, after washing the cells with FACS buffer, they were resuspended in 200 μL of FACS buffer for analysis. The parent TIGIT antibody P03479 was used as a control.
The results were consistent with those obtained by binding recombinant TIGIT in vitro (Example 6).

Test [4] deals with T4, recombinant IL2Rα subunit (Sinobio) (UniProt P01589 22-213).
T4 sequence (looked up): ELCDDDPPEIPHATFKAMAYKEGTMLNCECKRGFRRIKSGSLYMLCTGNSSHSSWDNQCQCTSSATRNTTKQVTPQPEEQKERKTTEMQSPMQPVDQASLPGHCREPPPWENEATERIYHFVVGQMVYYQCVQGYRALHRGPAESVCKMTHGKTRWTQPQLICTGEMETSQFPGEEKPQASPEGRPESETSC
Description: BLI, recombinant IL2Rα subunit. A general note: BLI is a label-free optical method that tracks binding on a fibre tip over time.

Several values for one entry are separate records, joined by “and”; a condition that tells them apart may be missing. Equal entries are not always repeated.

B1: KD5201F, HC-IL2wt/LC(ART-Ig) anti-TIGIT antibody-IL2 fusion protein (other)
heavy 1: EVQVVESGGGLVKPGGSLRLSCAASGFTFSTYAMSWVRQAPGKGLEWVAEISSGGSHTFYADTVKGRFTISRDNAKNTLYLQMNSLRAEDTAVYYCARKTLDYYALDYWGQGTTVTVSSASTKGPSVFPLAPSSKSTSGGTAALGCLVKDYFPEPVTVSWNSGALTSGVHTFPAVLQSSGLYSLSSVVTVPSSSLGTQTYICNVNHKPSNTKVDKKV[sequence of human IgG1 Fc with D356K H435R (EU numbers) not given]GGGGSGGGGSGGGGS[sequence of about 150 residues not given]
heavy 2: EVQVVESGGGLVKPGGSLRLSCAASGFTFSTYAMSWVRQAPGKGLEWVAEISSGGSHTFYADTVKGRFTISRDNAKNTLYLQMNSLRAEDTAVYYCARKTLDYYALDYWGQGTTVTVSSASTKGPSVFPLAPSSKSTSGGTAALGCLVKDYFPEPVTVSWNSGALTSGVHTFPAVLQSSGLYSLSSVVTVPSSSLGTQTYICNVNHKPSNTKVDKKV[sequence of human IgG1 Fc with K439E (EU numbers) not given]
light: DVQITQSPSYLSASVGDRVTINCRASKSISKYLAWYQQKPGKAPKLLIYSGSRLQSGIPSRFSGSGYGTDFTLTISSLQPEDFATYYCQQHNEYPWTFGGGTKLEIKRTVAAPSVFIFPPSDEQLKSGTASVVCLLNNFYPREAKVQWKVDNALQSGNSQESVTEQDSKDSTYSLSSTLTLSKADYEKHKVYACEVTHQGLSSPVTKSFNRGEC
notes: Heterodimeric […] antibody with wild-type IL2 on the C-terminus of one heavy chain; also called HC1-IL2wt/LC1(ART-Ig); HC1-IL2 wt/LC1 (ART-Ig)
One may read the EC50 as the concentration that produces a half-maximal response. In general, Kd refers to the concentration at which binding is half-saturated. On to B1, for which the binding result in test [1] was “binds”. Moreover, in test [2], the “EC50 of stimulating CTLL-2 cell growth (CCK-8)” value is 0.0111 µg/mL and 0.0136 µg/mL. Further, the EC50 in test [3] amounted to 0.0628 µg/mL. The Kd in test [4] is about 3 nM.

The values are drawn from US20250333507A1 (SHANGHAI CELGEN BIO PHARMACEUTICAL, published 2025).
